Laboratory results reported in the GPR68 mutational scans of Howard et al. (2025).

B1: GPR68, Q15743 (parent)
chain: MGNITADNSSMSCTIDHTIHQTLAPVVYVTVLVVGFPANCLSLYFGYLQIKARNELGVYLCNLTVADLFYICSLPFWLQYVLQHDNWSHGDLSCQVCGILLYENIYISVGFLCCISVDRYLAVAHPFRFHQFRTLKAAVGVSVVIWAKELLTSIYFLMHEEVIEDENQHRVCFEHYPIQAWQRAINYYRFLVGFLFPICLLLASYQGILRAVRRSHGTQKSRKDQIQRLVLSTVVIFLACFLPYHVLLLVRSVWEASCDFAKGVFNAYHFSLLLTSFNCVADPVLYCFVSETTHRDLARLRGACLAFLTCSRTGRAREAYPLGAPEASGKSGAQGEEPELLTKLHPAFQTPNSPGSGGFPTGRLA

Tests used:
[1] = variants of: B1; test: cAMP reporter score (Enrich2 score, wild type = 0); higher = more signal; HEK293T, FACS bins
[2] = variants of: B1; test: surface expression score (Enrich2 score, wild type = 0); higher = more signal; HEK293T, FACS bins

G357N
cAMP reporter score ([1]; pH 5.5): 0.875
cAMP reporter score ([1]; pH 6): -0.271
cAMP reporter score ([1]; pH 6, modulator: ogerin): 0.074
cAMP reporter score ([1]; pH 6.5, modulator: ogerin): 0.316
surface expression score [2]: 1.05

G357P
cAMP reporter score ([1]; pH 5.5): 0.119
cAMP reporter score ([1]; pH 6): 0.858
cAMP reporter score ([1]; pH 6, modulator: ogerin): 1.34
cAMP reporter score ([1]; pH 6.5, modulator: ogerin): 0.586
surface expression score [2]: 1.18

G357Q
cAMP reporter score ([1]; pH 5.5): 0.466
cAMP reporter score ([1]; pH 6, modulator: ogerin): 0.909
cAMP reporter score ([1]; pH 6.5, modulator: ogerin): 1.04
surface expression score [2]: 0.236

G357R
cAMP reporter score ([1]; pH 5.5): 0.17
cAMP reporter score ([1]; pH 6, modulator: ogerin): -0.427
cAMP reporter score ([1]; pH 6.5, modulator: ogerin): 0.532
surface expression score [2]: -0.307

G357S
cAMP reporter score ([1]; pH 5.5): 0.007
cAMP reporter score ([1]; pH 6): 0.215
cAMP reporter score ([1]; pH 6, modulator: ogerin): 0.284
cAMP reporter score ([1]; pH 6.5, modulator: ogerin): -0.679
surface expression score [2]: 0.198

G357T
cAMP reporter score ([1]; pH 5.5): 0.515
cAMP reporter score ([1]; pH 6): 2.08
cAMP reporter score ([1]; pH 6, modulator: ogerin): 1.72
cAMP reporter score ([1]; pH 6.5, modulator: ogerin): 1.61

G357V
cAMP reporter score ([1]; pH 5.5): -0.147
cAMP reporter score ([1]; pH 6): -0.286
cAMP reporter score ([1]; pH 6, modulator: ogerin): -0.231
cAMP reporter score ([1]; pH 6.5, modulator: ogerin): -0.506
surface expression score [2]: -0.034

G357W
cAMP reporter score ([1]; pH 5.5): 0.441
cAMP reporter score ([1]; pH 6): 0.776
cAMP reporter score ([1]; pH 6, modulator: ogerin): 0.314
cAMP reporter score ([1]; pH 6.5, modulator: ogerin): -0.217
surface expression score [2]: 0.123

G357Y
cAMP reporter score ([1]; pH 5.5): 0.684
cAMP reporter score ([1]; pH 6): -0.127
cAMP reporter score ([1]; pH 6, modulator: ogerin): 0.484
cAMP reporter score ([1]; pH 6.5, modulator: ogerin): 0.772
surface expression score [2]: 0.009

G357_G358insG
cAMP reporter score ([1]; pH 5.5): 0.69
cAMP reporter score ([1]; pH 6): 0.766
cAMP reporter score ([1]; pH 6, modulator: ogerin): 1.17
cAMP reporter score ([1]; pH 6.5, modulator: ogerin): 1.16
surface expression score [2]: 1.09

G357del
cAMP reporter score ([1]; pH 5.5): 0.513
cAMP reporter score ([1]; pH 6): -0.275
cAMP reporter score ([1]; pH 6, modulator: ogerin): 0.339
cAMP reporter score ([1]; pH 6.5, modulator: ogerin): 0.277
surface expression score [2]: 0.556

G358_F359del
cAMP reporter score ([1]; pH 5.5): 0.112
cAMP reporter score ([1]; pH 6): -0.036
cAMP reporter score ([1]; pH 6, modulator: ogerin): 0.082
cAMP reporter score ([1]; pH 6.5, modulator: ogerin): 0.149
surface expression score [2]: 0.026

G358_F359insG
cAMP reporter score ([1]; pH 5.5): 0.83
cAMP reporter score ([1]; pH 6): 2.15
cAMP reporter score ([1]; pH 6, modulator: ogerin): 0.892
cAMP reporter score ([1]; pH 6.5, modulator: ogerin): 1.56
surface expression score [2]: 0.843

G358_F359insGS
cAMP reporter score ([1]; pH 5.5): 0.767
cAMP reporter score ([1]; pH 6, modulator: ogerin): 0.724
cAMP reporter score ([1]; pH 6.5, modulator: ogerin): 1.05
surface expression score [2]: 1.6

F359_P360del
cAMP reporter score ([1]; pH 5.5): 0.611
cAMP reporter score ([1]; pH 6): 0.045
cAMP reporter score ([1]; pH 6, modulator: ogerin): 1.12
cAMP reporter score ([1]; pH 6.5, modulator: ogerin): 0.639
surface expression score [2]: 0.319

P360_T361del
cAMP reporter score ([1]; pH 5.5): 0.916
cAMP reporter score ([1]; pH 6): -0.241
cAMP reporter score ([1]; pH 6, modulator: ogerin): 0.656
cAMP reporter score ([1]; pH 6.5, modulator: ogerin): 0.922
surface expression score [2]: 0.313

P360_T361insGS
cAMP reporter score ([1]; pH 5.5): 0.01
cAMP reporter score ([1]; pH 6, modulator: ogerin): 0.023
cAMP reporter score ([1]; pH 6.5, modulator: ogerin): -0.961
surface expression score [2]: 0.004

P360_T361insGSG
cAMP reporter score ([1]; pH 5.5): -0.029
cAMP reporter score ([1]; pH 6): 0.723
cAMP reporter score ([1]; pH 6, modulator: ogerin): 0.588
cAMP reporter score ([1]; pH 6.5, modulator: ogerin): 1.05
surface expression score [2]: 0.223

P360del
cAMP reporter score ([1]; pH 5.5): 1.71
cAMP reporter score ([1]; pH 6): -0.553
cAMP reporter score ([1]; pH 6.5, modulator: ogerin): -0.555
surface expression score [2]: 2.47

T361_G362insGSG
cAMP reporter score ([1]; pH 5.5): 0.85
cAMP reporter score ([1]; pH 6): 1.32
cAMP reporter score ([1]; pH 6, modulator: ogerin): 1.26
cAMP reporter score ([1]; pH 6.5, modulator: ogerin): 0.953
surface expression score [2]: 0.605

T361_R363del
cAMP reporter score ([1]; pH 5.5): 0.674
cAMP reporter score ([1]; pH 6): 0.844
cAMP reporter score ([1]; pH 6, modulator: ogerin): -0.285
cAMP reporter score ([1]; pH 6.5, modulator: ogerin): 0.21
surface expression score [2]: 0.149

G362_L364del
cAMP reporter score ([1]; pH 5.5): 1.07
cAMP reporter score ([1]; pH 6): 0.266
cAMP reporter score ([1]; pH 6, modulator: ogerin): 0.699
cAMP reporter score ([1]; pH 6.5, modulator: ogerin): 0.222
surface expression score [2]: 0.35

G362_R363del
cAMP reporter score ([1]; pH 5.5): 0.231
cAMP reporter score ([1]; pH 6): -0.027
cAMP reporter score ([1]; pH 6, modulator: ogerin): 0.198
cAMP reporter score ([1]; pH 6.5, modulator: ogerin): 0.305
surface expression score [2]: -0.338

G362_R363insG
cAMP reporter score ([1]; pH 5.5): 0.885
cAMP reporter score ([1]; pH 6): 1.82
cAMP reporter score ([1]; pH 6, modulator: ogerin): 1.7
cAMP reporter score ([1]; pH 6.5, modulator: ogerin): 1.46
surface expression score [2]: 0.934

G362del
cAMP reporter score ([1]; pH 5.5): 1
cAMP reporter score ([1]; pH 6): 0.726
cAMP reporter score ([1]; pH 6, modulator: ogerin): 0.777
cAMP reporter score ([1]; pH 6.5, modulator: ogerin): 0.376
surface expression score [2]: 0.985

R363A
cAMP reporter score ([1]; pH 5.5): -0.071
cAMP reporter score ([1]; pH 6): -0.03
cAMP reporter score ([1]; pH 6, modulator: ogerin): 0.823
cAMP reporter score ([1]; pH 6.5, modulator: ogerin): 0.549
surface expression score [2]: 0.326

R363C
cAMP reporter score ([1]; pH 5.5): 0.212
cAMP reporter score ([1]; pH 6): 1.74
cAMP reporter score ([1]; pH 6, modulator: ogerin): 1.03
cAMP reporter score ([1]; pH 6.5, modulator: ogerin): 0.487
surface expression score [2]: 0.944

R363D
cAMP reporter score ([1]; pH 5.5): 0.206
cAMP reporter score ([1]; pH 6): 1.07
cAMP reporter score ([1]; pH 6, modulator: ogerin): 0.986
cAMP reporter score ([1]; pH 6.5, modulator: ogerin): 0.954
surface expression score [2]: 0.768

R363E
cAMP reporter score ([1]; pH 5.5): 1.06
cAMP reporter score ([1]; pH 6, modulator: ogerin): 0.84
cAMP reporter score ([1]; pH 6.5, modulator: ogerin): 1.73
surface expression score [2]: 1

R363F
cAMP reporter score ([1]; pH 5.5): 0.651
cAMP reporter score ([1]; pH 6): -0.018
cAMP reporter score ([1]; pH 6, modulator: ogerin): 0.708
cAMP reporter score ([1]; pH 6.5, modulator: ogerin): 0.023
surface expression score [2]: 0.715

R363G
cAMP reporter score ([1]; pH 5.5): 0.984
cAMP reporter score ([1]; pH 6): 0.608
cAMP reporter score ([1]; pH 6, modulator: ogerin): 1.36
cAMP reporter score ([1]; pH 6.5, modulator: ogerin): 1.9
surface expression score [2]: 1.87

R363H
cAMP reporter score ([1]; pH 5.5): 0.481
cAMP reporter score ([1]; pH 6, modulator: ogerin): 0.879
cAMP reporter score ([1]; pH 6.5, modulator: ogerin): 1.32
surface expression score [2]: 0.659

Scores whose standard error is large were omitted. Two further conditions of the source, in which the scores hardly spread, are not listed. Read del as a deletion of the residues named and ins as an insertion between two positions. For some assays here: How much ogerin was present is not stated here.
